Our source for the Ki values is patent US11814447B2, “Peptide ligands for binding to EphA2” (BICYCLERD LIMITED, priority 2018, dated 2023).

Where two headings read alike, the source gives them in different places.

The term Ki denotes the equilibrium dissociation constant of an inhibitor or competing ligand from its target.

This experiment concerns the target T1, Human EphA2 (Homo sapiens, UniProt P29317).
T1 construct: EphA2 (Ecto); polyHis (C)
The experiment in a line: Fluorescence polarisation competition binding assay. Here is the method: 1. Fluorescence Polarisation Measurements
(b) Competition Binding Assay
Peptides without a fluorescent tag were tested in competition with a peptide with a fluorescent tag and a known Kd (Table 2). Peptides were diluted to an appropriate concentration in assay buffer as described in the direct binding assay with a maximum of 5% DMSO, then serially diluted 1 in 2. […] Measurements were conducted as for the direct binding assay, however the gain was determined prior to the first measurement. Data analysis was in Systat Sigmaplot version 12.0 where the mP values were fit to a user defined cubic equation to generate a Ki value: f=y min+(y max−y min)/Lig*((Lig*((2*((Klig+Kcomp+Lig+Comp−Prot*c)^2−3*(Kcomp*(Lig−Prot*c)+Klig*(Comp−Prot*c)+Klig*Kcomp))^0.5*COS(ARCCOS((−2*(Klig+Kcomp+Lig+Comp−Prot*c)^3+9*(Klig+Kcomp+Lig+Comp−Prot*c)*(Kcomp*(Lig−Prot*c)+Klig*(Comp−Prot*c)+Klig*Kcomp)−27*(−1*Klig*Kcomp*Prot*c))/(2*(4(Klig+Kcomp+Lig+Comp−Prot*c)^2−3*(Kcomp*(Lig−Prot*c)+Klig*(Comp−Prot*c)+Klig*Kcomp))^3)^0.5)))/3))−(Klig+Kcomp+Lig+Comp−Prot*c)))/((3*Klig)+42*((Klig+Kcomp+Lig+Comp−Prot*c)^2−3*(Kcomp*(Lig−Prot*c)+Klig*(Comp−Prot*c)+Klig*Kcomp))^0.5*COS(ARCCOS((−2*(Klig+Kcomp+Lig+Comp−Prot*c)^3+9*(Klig+Kcomp+Lig+Comp−Prot*c)*(Kcomp*(Lig−Prot*c)+Klig*(Comp−Prot*c)+Klig*Kcomp)−27*(−1*Klig*Kcomp*Prot*c))/(2*(4(Klig+Kcomp+Lig+Comp−Prot*c)^2−3*(Kcomp*(Lig−Prot*c)+Klig*(Comp−Prot*c)+Klig*Kcomp))^3)^0.5)))/3))−(Klig+Kcomp+Lig+Comp−Prot*c)))).
“Lig”, “KLig” and “Prot” were all defined values relating to: fluorescent peptide concentration, the Kd of the fluorescent peptide and EphA2 concentration respectively.

The mark [1] stands for this setting: read-out: Human EphA2 (Ki, nM ± 95% CI) Fluorescent Peptide Compound 66, Table 4, fluorescent peptide Compound 66.
[2] abbreviates: read-out: Ki, nM ± 95% CI Human EphA2 Fluorescent peptide Compound 66, Table 9, Ala scan peptides, fluorescent peptide Compound 66.
The mark [3] stands for this setting: read-out: Human EphA2 (Ki, nM ± 95% CI) Fluorescent Peptide Compound 18, Table 4, fluorescent peptide Compound 18.

T1 sequence (P29317 24-537 limits assumed): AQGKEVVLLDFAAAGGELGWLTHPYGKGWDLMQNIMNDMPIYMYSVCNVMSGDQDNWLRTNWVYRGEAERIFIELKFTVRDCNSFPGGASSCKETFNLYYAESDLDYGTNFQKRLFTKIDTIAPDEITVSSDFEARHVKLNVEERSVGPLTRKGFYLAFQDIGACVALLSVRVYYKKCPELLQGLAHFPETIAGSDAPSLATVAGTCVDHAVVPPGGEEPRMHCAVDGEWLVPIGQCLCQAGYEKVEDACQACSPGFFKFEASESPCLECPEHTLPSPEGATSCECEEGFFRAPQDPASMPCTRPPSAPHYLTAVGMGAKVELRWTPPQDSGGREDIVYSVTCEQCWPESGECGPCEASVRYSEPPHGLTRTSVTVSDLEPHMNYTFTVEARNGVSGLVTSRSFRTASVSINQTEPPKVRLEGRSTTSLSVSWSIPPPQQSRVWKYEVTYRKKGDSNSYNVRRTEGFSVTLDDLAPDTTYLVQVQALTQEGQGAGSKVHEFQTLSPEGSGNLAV

Regarding `CSCC[C@@H]1NC(=O)[C@@H](NC(C)=O)CSCc2cc3cc(c2)CSC[C@H](NC(=O)[C@H](CC(C)C)NC(=O)[C@H](Cc2c[nH]c4ccccc24)NC(=O)[C@H](CC(=O)O)NC(=O)[C@H](CC(N)=O)NC1=O)C(=O)N[C@@H](CO)C(=O)N[C@@H](C)C(=O)NCC(=O)N[C@@H](Cc1c[nH]c2ccccc12)C(=O)N[C@@H]([C@@H](C)O)C(=O)N[C@H](C(N)=O)CSC3` [A27], the Ki reads like this: under setting [1], 356 nM; under setting [2], 356 nM.
With `CC(C)[C@H](NC(=O)[C@H](CC(=O)O)NC(=O)[C@H](C)N)C(=O)N[C@@H](CCCNC(=N)N)C(=O)N[C@H](C(=O)N[C@H]1CSCc2cc3cc(c2)CSC[C@H](NC(=O)[C@H](Cc2c[nH]c4ccccc24)NC(=O)[C@H](Cc2ccccc2)NC(=O)[C@@H]2CCCN2C(=O)CNC(=O)[C@H](Cc2c[nH]c4ccccc24)NC(=O)[C@@H]2CCCN2C1=O)C(=O)N1CCC[C@H]1C(=O)N[C@@H](C(C)C)C(=O)N[C@@H](CC(N)=O)C(=O)N[C@@H](CCCNC(=N)N)C(=O)N1CCC[C@H]1C(=O)NCC(=O)N[C@H](C(=O)N[C@@H](C)C(N)=O)CSC3)[C@@H](C)O` [A60], the Ki was determined as 12.6 ± 1.29 nM under setting [3] and 2.5 nM under setting [1].
For the molecule `CC(=O)N[C@H]1CSCc2cc3cc(c2)CSC[C@H](NC(=O)[C@H](CC(C)C)NC(=O)[C@H](Cc2c[nH]c4ccccc24)NC(=O)[C@H](CC(=O)O)NC(=O)[C@H](CC(N)=O)NC(=O)[C@H](C)NC1=O)C(=O)N[C@@H](CO)C(=O)N[C@@H](CC(C)C)C(=O)NCC(=O)N[C@@H](Cc1c[nH]c2ccccc12)C(=O)N[C@@H]([C@@H](C)O)C(=O)N[C@H](C(N)=O)CSC3` [A25], the Ki turned out to be 328 nM under setting [1] and 328 nM under setting [2].
As for `CC(C)[C@@H]1NC(=O)[C@@H]2CCCN2C(=O)[C@@H]2CSCc3cc(cc(c3)CSC[C@H](NC(=O)[C@H](C)NC(=O)CN(C)C(=O)CN(C)C(=O)CN(C)C(=O)CN(C)C(=O)CN(C)C(=O)CN(C)C(=O)CN(C)C(=O)CN(C)C(=O)CN(C)C(=O)CN(C)C(=O)CCN)C(=O)N3CCC[C@H]3C(=O)N[C@@H](Cc3c[nH]c4ccccc34)C(=O)NCC(=O)N3CCC[C@H]3C(=O)N[C@@H](Cc3ccccc3)C(=O)N[C@@H](Cc3c[nH]c4ccccc34)C(=O)N2)CSC[C@@H](C(N)=O)NC(=O)CNC(=O)[C@@H]2CCCN2C(=O)[C@H](CCCNC(=N)N)NC(=O)[C@H](CC(N)=O)NC1=O` [A72], the Ki (read-out: Ki, nM ± 95% CI Human EphA2 Fluorescent Peptide Compound 66, Table 6, fluorescent peptide Compound 66) came out at 21 ± 2.18 nM.
`CC(C)[C@@H]1NC(=O)[C@@H]2CCCN2C(=O)[C@@H]2CSCc3cc(cc(c3)CSC[C@H](NC(=O)[C@H](C)NC(=O)[C@H](Cc3c[nH]cn3)NC(=O)[C@H](CC(=O)O)NC(=O)[C@H](C)N)C(=O)N3CCC[C@H]3C(=O)N[C@@H](Cc3c[nH]c4ccccc34)C(=O)NCC(=O)N3CCC[C@H]3C(=O)N[C@@H](Cc3ccccc3)C(=O)N[C@@H](Cc3c[nH]c4ccccc34)C(=O)N2)CSC[C@@H](C(=O)N[C@@H](C)C(N)=O)NC(=O)CNC(=O)[C@@H]2CCCN2C(=O)[C@H](CCCNC(=N)N)NC(=O)[C@H](CC(N)=O)NC1=O` [A56]: under setting [3], the inhibition constant Ki is 14.4 ± 6.28 nM.
Consider `CC(C)[C@@H]1NC(=O)[C@@H]2CCCN2C(=O)[C@@H]2CSCc3cc(cc(c3)CSC[C@H](NC(=O)[C@H](C)N)C(=O)N3CCC[C@H]3C(=O)N[C@@H](Cc3c[nH]c4ccccc34)C(=O)NCC(=O)N3CCC[C@H]3C(=O)N[C@@H](C)C(=O)N[C@@H](Cc3c[nH]c4ccccc34)C(=O)N2)CSC[C@@H](C(=O)N[C@@H](C)C(N)=O)NC(=O)CNC(=O)[C@H](CC(N)=O)NC(=O)[C@H](CCCNC(=N)N)NC(=O)[C@H](CC(N)=O)NC1=O` [A52], for which the Ki under setting [1] was determined as 168 ± 72.5 nM.
Same read-out and setting: next, `CC[C@H](C)[C@@H]1NC(=O)CNC(=O)[C@H](CCC(N)=O)NC(=O)[C@@H]2CCCN2C(=O)[C@H](C(C)C)NC(=O)[C@@H](NC(=O)[C@H](C)N)CSCc2cc3cc(c2)CSC[C@@H](C(=O)N[C@@H](C)C(N)=O)NC(=O)[C@@H]2CCCN2C(=O)[C@H](CCC(=O)O)NC(=O)[C@H](Cc2ccc(O)cc2)NC(=O)[C@H](CCCNC(=N)N)NC(=O)[C@H](CC(C)C)NC(=O)[C@H](C)NC(=O)[C@H](CSC3)NC(=O)[C@H](Cc2c[nH]c3ccccc23)NC1=O` [A65]: 293 nM.
